{"source": "the supplement of paper PMC3334620", "note": "Whole data set: some 33,000 sequences, median “E-score (-0.5 to 0.5)” near -0.04, cut for the highest 2% near 0.36. The list shows a part of the results."}
{"target": "T1, Hmlalpha2 (UniProt P0CY09)", "T1 sequence": "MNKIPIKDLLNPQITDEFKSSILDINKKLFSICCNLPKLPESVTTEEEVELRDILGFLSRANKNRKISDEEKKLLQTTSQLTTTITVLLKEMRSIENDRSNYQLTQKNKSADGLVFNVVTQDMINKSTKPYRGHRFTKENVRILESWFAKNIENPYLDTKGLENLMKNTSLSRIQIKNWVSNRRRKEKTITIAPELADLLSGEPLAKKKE", "assay": "PBM E-score (8-mer binding enrichment) (E-score (-0.5 to 0.5)); higher = stronger / more preferred TF binding; most listed sequences are background and not binding sites", "details": "protein concentration: 200 nM; construct: GST-full length", "method": "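Universal 'all 10-mer' protein binding microarrays (Agilent AMADID 015681) probed with GST-tagged S. cerevisiae TFs (full-length or DBD) made by in vitro transcription/translation (PURExpress), about 100-200 nM. Bound TF was detected with fluorescent anti-GST. Each ungapped 8-mer (which stands for itself and its reverse complement) is scored by the PBM enrichment score (E-score), a modified Wilcoxon-Mann-Whitney statistic from -0.5 to +0.5, computed with the Universal PBM Analysis Suite. Scale: above 0.35 generally sequence-specific binding.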"}
{"sequence": "TACACCAA", "PBM E-score": 0.155}
{"sequence": "AAGAGCCC", "PBM E-score": -0.212}
{"sequence": "CCACAGGA", "PBM E-score": -0.161}
{"sequence": "TATTATAA", "PBM E-score": 0.176}
{"sequence": "ACGTACAC", "PBM E-score": 0.333}
{"sequence": "AGATGTCA", "PBM E-score": 0.11}
{"sequence": "ACGCGCGT", "PBM E-score": 0.343}
{"sequence": "AAAGGGCT", "PBM E-score": -0.174}
{"sequence": "AGCCTCGG", "PBM E-score": -0.276}
{"sequence": "TACTGAAA", "PBM E-score": 0.0807}
{"sequence": "AGACATTG", "PBM E-score": -0.103}
{"sequence": "ACGGAGTA", "PBM E-score": -0.0455}
{"sequence": "AACCAGTT", "PBM E-score": 0.158}
{"sequence": "AGCGCCGG", "PBM E-score": -0.299}
{"sequence": "GGCTAAGA", "PBM E-score": -0.248}
{"sequence": "CGTACACC", "PBM E-score": 0.0642}
{"sequence": "GCCCCGAC", "PBM E-score": -0.247}
{"sequence": "GGTTATGA", "PBM E-score": 0.0401}
{"sequence": "AAGCTCCC", "PBM E-score": -0.233}
{"sequence": "CAGGCTCA", "PBM E-score": -0.07}
{"sequence": "GGTGATCA", "PBM E-score": -0.103}
{"sequence": "TGTGGGAA", "PBM E-score": 0.00853}
{"sequence": "CCGACCTC", "PBM E-score": -0.195}
{"sequence": "AATCATTG", "PBM E-score": 0.103}
{"sequence": "CTCAGACA", "PBM E-score": -0.0237}
{"sequence": "AGCCTGAT", "PBM E-score": 0.012}
{"sequence": "GGCGTCGA", "PBM E-score": -0.0196}
{"sequence": "ATCGTCCA", "PBM E-score": -0.237}
{"sequence": "ATACGCAC", "PBM E-score": 0.297}
{"sequence": "ACTAATGC", "PBM E-score": 0.0346}
{"sequence": "AAGAACTG", "PBM E-score": -0.178}
{"sequence": "ACGCCGTC", "PBM E-score": 0.0115}
{"sequence": "CCCCACGG", "PBM E-score": -0.224}
{"sequence": "GGATTTAC", "PBM E-score": 0.279}
{"sequence": "CTCAGATC", "PBM E-score": -0.171}
{"sequence": "GAAGGTAA", "PBM E-score": 0.0918}
{"sequence": "GAATCTCA", "PBM E-score": -0.142}
{"sequence": "CTCTTCTA", "PBM E-score": -0.103}
{"sequence": "ACGTGCGG", "PBM E-score": -0.132}
{"sequence": "ATATCCTA", "PBM E-score": 0.0663}
{"sequence": "GAGAAGGA", "PBM E-score": -0.232}
{"sequence": "CACTATAG", "PBM E-score": -0.0636}
{"sequence": "CCACGACC", "PBM E-score": -0.0888}
{"sequence": "GCTACATA", "PBM E-score": 0.255}
{"sequence": "AGCTACTC", "PBM E-score": -0.068}
{"sequence": "AGCTCGGC", "PBM E-score": -0.0754}
{"sequence": "AAAATGGG", "PBM E-score": -0.186}
{"sequence": "CACATTAC", "PBM E-score": 0.375}
{"sequence": "CGGTCATC", "PBM E-score": -0.204}
{"sequence": "AGCCACTA", "PBM E-score": -0.207}
{"sequence": "CGTGCAAA", "PBM E-score": 0.172}
{"sequence": "CCAGATCC", "PBM E-score": -0.355}
{"sequence": "GGCAAACA", "PBM E-score": 0.0111}
{"sequence": "ACTAATTG", "PBM E-score": -0.0219}
{"sequence": "ATATGAGA", "PBM E-score": -0.0168}
{"sequence": "CCCATTAG", "PBM E-score": -0.276}
{"sequence": "GAGAGTGC", "PBM E-score": -0.0884}
{"sequence": "ACGTCGAG", "PBM E-score": 0.0652}
{"sequence": "GAACGTGC", "PBM E-score": -0.0535}
{"sequence": "CGTAGACG", "PBM E-score": 0.0427}
{"sequence": "CGACGTAC", "PBM E-score": 0.234}
{"sequence": "CGCCCTAC", "PBM E-score": -0.0898}
{"sequence": "AACAACTC", "PBM E-score": 0.0384}
{"sequence": "GCGTGTAA", "PBM E-score": 0.486}
{"sequence": "GGGCACAA", "PBM E-score": -0.252}
{"sequence": "ACGGTCCG", "PBM E-score": -0.182}
{"sequence": "GTCGAAGA", "PBM E-score": 0.0307}
{"sequence": "GGGAGAGA", "PBM E-score": -0.33}
{"sequence": "CTCTAGAA", "PBM E-score": -0.166}
{"sequence": "AGCTTTAG", "PBM E-score": -0.075}
{"sequence": "CCTTGGGC", "PBM E-score": -0.362}
{"sequence": "TCATATAA", "PBM E-score": 0.173}
{"sequence": "GTACATCA", "PBM E-score": 0.288}
{"sequence": "CCACCAGA", "PBM E-score": -0.076}
{"sequence": "TAAATTCA", "PBM E-score": 0.0489}
{"sequence": "AGCTGCCT", "PBM E-score": -0.324}
{"sequence": "ATCGAATA", "PBM E-score": 0.0551}
{"sequence": "TAAGCTGA", "PBM E-score": 0.0917}
{"sequence": "CAATCCAC", "PBM E-score": -0.0613}
{"sequence": "ACCGTGTA", "PBM E-score": 0.473}
{"sequence": "AACCGGTA", "PBM E-score": -0.119}
{"sequence": "TAACCTAA", "PBM E-score": 0.143}
{"sequence": "CTCACCAC", "PBM E-score": -0.153}
{"sequence": "CTGAAGAA", "PBM E-score": -0.319}
{"sequence": "ATAAACAT", "PBM E-score": 0.383}
{"sequence": "GAATTGGC", "PBM E-score": -0.279}
{"sequence": "GTATGCAA", "PBM E-score": 0.0956}
{"sequence": "CTGTAAGA", "PBM E-score": 0.0715}
{"sequence": "CCGTCTAA", "PBM E-score": -0.156}
{"sequence": "AAGGCGAG", "PBM E-score": -0.25}
{"sequence": "GTTGAAAA", "PBM E-score": 0.201}
{"sequence": "TAAGAGGA", "PBM E-score": -0.112}
{"sequence": "ATGGCCAC", "PBM E-score": -0.057}
{"sequence": "ATGAAAAT", "PBM E-score": 0.209}
{"sequence": "AAAATTAC", "PBM E-score": 0.285}
{"sequence": "CAGTTCAG", "PBM E-score": -0.19}
{"sequence": "CGTCCCAA", "PBM E-score": -0.11}
{"sequence": "GTTAACTA", "PBM E-score": 0.362}
{"sequence": "CGCCGCGA", "PBM E-score": -0.142}
{"sequence": "CTCACCCC", "PBM E-score": -0.288}
{"sequence": "CATCTCCC", "PBM E-score": -0.286}
{"sequence": "GCAAAAAC", "PBM E-score": 0.0786}
{"sequence": "AGGCCATG", "PBM E-score": 0.0613}
{"sequence": "ACCTATAG", "PBM E-score": -0.177}
{"sequence": "CTCAAGAC", "PBM E-score": -0.11}
{"sequence": "TCAGTAAA", "PBM E-score": 0.141}
{"sequence": "CCTCATAC", "PBM E-score": -0.00926}
{"sequence": "AGTGACTA", "PBM E-score": -0.0907}
{"sequence": "ACAGATGC", "PBM E-score": -0.0548}
{"sequence": "AACCGACT", "PBM E-score": -0.255}
{"sequence": "CGACTGCA", "PBM E-score": -0.14}
{"sequence": "AACAAACC", "PBM E-score": 0.178}
{"sequence": "CAGGGAGC", "PBM E-score": -0.295}
{"sequence": "GAGGAGAA", "PBM E-score": -0.191}
{"sequence": "CATAACTA", "PBM E-score": 0.0941}
{"sequence": "CTTAGCCA", "PBM E-score": -0.06}
{"sequence": "CGGGTACG", "PBM E-score": -0.222}
{"sequence": "CTCAGTGC", "PBM E-score": -0.158}
{"sequence": "CGCACAAG", "PBM E-score": -0.0655}
{"sequence": "AAAAGATT", "PBM E-score": -0.127}
{"sequence": "CAGAGCTA", "PBM E-score": -0.237}
{"sequence": "GGTGCCTA", "PBM E-score": -0.055}
{"sequence": "CAATACAA", "PBM E-score": 0.256}
{"sequence": "CACATTTC", "PBM E-score": 0.0774}
{"sequence": "AGTAACAC", "PBM E-score": 0.288}
{"sequence": "CTAGCGCA", "PBM E-score": -0.177}
{"sequence": "CTCGGGAA", "PBM E-score": -0.123}
{"sequence": "CCAGACTA", "PBM E-score": -0.0503}
{"sequence": "CCCCCCAC", "PBM E-score": -0.391}
{"sequence": "TACATGTA", "PBM E-score": 0.479}
{"sequence": "ATGGGACC", "PBM E-score": -0.0949}
{"sequence": "CCAATTAG", "PBM E-score": -0.0353}
{"sequence": "CCCTAAAA", "PBM E-score": -0.194}
{"sequence": "GTCGGCCA", "PBM E-score": -0.226}
{"sequence": "ACCAAGCG", "PBM E-score": -0.073}
{"sequence": "CCGATCAA", "PBM E-score": -0.0314}
{"sequence": "GGATGAAC", "PBM E-score": -0.108}
{"sequence": "GGGCGGAA", "PBM E-score": -0.311}
{"sequence": "CCTAGGAG", "PBM E-score": -0.13}
{"sequence": "TAATAGTA", "PBM E-score": 0.264}
{"sequence": "ATCGGAAG", "PBM E-score": 0.046}
{"sequence": "ACGGCACA", "PBM E-score": -0.00134}
{"sequence": "AACGGACT", "PBM E-score": -0.0339}
{"sequence": "GTCCTCCA", "PBM E-score": -0.258}
{"sequence": "ACATCCAA", "PBM E-score": 0.205}
{"sequence": "GTTTATTA", "PBM E-score": 0.336}
{"sequence": "GGTAGCAA", "PBM E-score": -0.113}
{"sequence": "ATAGATCA", "PBM E-score": 0.173}
{"sequence": "AGTTAGAC", "PBM E-score": 0.161}
{"sequence": "CTGGCAAC", "PBM E-score": -0.224}
{"sequence": "AGTCAGAA", "PBM E-score": -0.18}
{"sequence": "TATCTAGA", "PBM E-score": 0.0413}
{"sequence": "ATAACACA", "PBM E-score": 0.439}
{"sequence": "AAGTAGTG", "PBM E-score": -0.111}
{"sequence": "ATTGTTGA", "PBM E-score": 0.311}
{"sequence": "ATGCAAGC", "PBM E-score": 0.127}
{"sequence": "GAAGCAGC", "PBM E-score": -0.226}
{"sequence": "AGGTAGCC", "PBM E-score": -0.131}
{"sequence": "CATCGGCC", "PBM E-score": -0.271}
{"sequence": "CATATTGC", "PBM E-score": -0.2}
{"sequence": "CATGATGG", "PBM E-score": 0.00737}
{"sequence": "CGGCACAC", "PBM E-score": -0.156}
{"sequence": "ACAGCCTG", "PBM E-score": 0.0318}
{"sequence": "ATTTATAA", "PBM E-score": 0.175}
{"sequence": "ACGCTACT", "PBM E-score": 0.0717}
{"sequence": "CAGGCAGC", "PBM E-score": -0.307}
{"sequence": "AGATCATC", "PBM E-score": 0.0764}
{"sequence": "ATCTAATC", "PBM E-score": 0.166}
{"sequence": "CTTGAGTA", "PBM E-score": 0.053}
{"sequence": "ACAGAAGG", "PBM E-score": -0.218}
{"sequence": "CTAGTAAG", "PBM E-score": 0.0377}
{"sequence": "ATAGTTGA", "PBM E-score": -0.0016}
